The labels stand for the following.
B1: S008-NB148-5 (Fc fusion)
chain: QLQLVESGGGLVQAGGSLRLSCAVSISTFTTNGWDWYRQAPGKQRELVALISNDGTTTYTDSVKGRFTISRDGAKNTVYLQMNNLKPEDTAVYYCNTIPPAGSWGQGTQVTVSS[human IgG1 Fc with changes not shown]
notes: VHH-Fc (VHH, human IgG1 hinge, human IgG1 Fc)
B2: S008-NB148-48 (Fc fusion)
chain: QLQLVESGGGLVQAGGSLKLSCVASGFTFSNYAMAWYRQAPGKQRELIASCSASCIWTNYGASVKGRFTMSLDNAKKTVYLQMDSLKPEDTAVYYCRNLDANYWGQGTQVTVSS[human IgG1 Fc with changes not shown]
notes: as for B1
B3: S008-NB148-30 (Fc fusion)
chain: EVQLVESGGGLVRAGGSLRLSCAASGTISSYDVVGWYRQAPGKQRELVALIGTDRWLNLGDFAKGRFTMSTDDAANTVDLEMNSLKPEDTAVYYCYTFQHTVGPRWGQGTQVTVSS[human IgG1 Fc with changes not shown]
notes: as for B1
B4: S008-NB148-13 (Fc fusion)
chain: EVQVVESGGGLVQPGGSLRLSCAASDDISSIYTMAWYRQAPGKQRELVALVTPGGGTNYADSVKGRFTISRDNAKNTVYLQMNSLKPEDTAVYYCNARHRVTGFAYWGQGTQVTVSS[human IgG1 Fc with changes not shown]
notes: Tested as VHH-Fc; order VHH-hinge-Fc inferred; also called S00S-NB1 48-13
B5: S008-NB148-9 (Fc fusion)
chain: EVQLVESGGGLVQAGGSLRLSCAASGSTLSSYAMGWYRQAPGKQRELVAAISSGGGSTNYRDSVKGRFTISRDNAKNTVYLQMNSLKPEDTAVYYCKSTDYGSLFDSWGQGTQVTVSS[human IgG1 Fc with changes not shown]
notes: Tested as VHH-Fc; order VHH-hinge-Fc inferred
B6: S008-NB148-48 (Fc fusion)
chain: QLQLVESGGGLVQAGGSLKLSCVASGFTFSNYAMAWYRQAPGKQRELIASCSASCIWTNYGASVKGRFTMSLDNAKKTVYLQMDSLKPEDTAVYYCRNLDANYWGQGTQVTVSS[human IgG1 Fc with changes not shown]
notes: as for B5
B7: S008-NB148-69 (Fc fusion)
chain: EVQVVESGGGLVQAGGSLRLSCAASTITISSAGVSWYRQAPGKQRELVAIITRGGSTNYADSVKGRFTISRDNAKNTHYLQMYNLKPEDTGIYYCNVVPPTYWGQGTQVTVSS[human IgG1 Fc with changes not shown]
notes: as for B5
B8: S008-NB148-30 (Fc fusion)
chain: EVQLVESGGGLVRAGGSLRLSCAASGTISSYDVVGWYRQAPGKQRELVALIGTDRWLNLGDFAKGRFTMSTDDAANTVDLEMNSLKPEDTAVYYCYTFQHTVGPRWGQGTQVTVSS[human IgG1 Fc with changes not shown]
notes: as for B5

The Kd is the concentration at which binding is half-saturated. As a reminder, the koff is the first-order rate constant of dissociation. The kon is a measure of how fast the partners come together. For orientation: EC50 means the concentration at which the effect is half-maximal. As usually defined, the EC80 is the concentration at which the effect reaches the 80% level.

The first assay has as its target T1, human EGFR-His-tagged fusion protein (human, UniProt P00533 part only).
T1 construct: extracellular domain; bought; also called human EGFR protein; human EGFR-His protein
In turn, B1 yielded an OD450 of 0.15.

As to B2, the OD450 came to 0.17.

Molecule B3 had an OD450 of 0.18.

The next assay deals with T2, human EGFR protein (human, UniProt P00533 part only).
T2 construct: also called human EGFR-His; human EGFR-ECD protein; not shown: His tag
Molecule B4 displayed a Kd of 257 nM, a koff of 0.0109 s⁻¹ and a kon of 42400 M⁻¹ s⁻¹.

As to B5, the Kd turned out to be 472 nM, the off-rate (koff) was determined as 0.0141 s⁻¹ and the kon was found to be 29900 M⁻¹ s⁻¹.

The molecule B6 came in with a dissociation constant Kd of 16.3 nM and a koff of 9.55 s⁻¹.

The molecule B7 gave a Kd of 10.1 nM, a dissociation rate constant (koff) of 0.000369 s⁻¹ and a kon of 36400 M⁻¹ s⁻¹.

B8: the Kd was found to be 5.41 nM, the koff worked out at 0.000317 s⁻¹ and the kon amounted to 58600 M⁻¹ s⁻¹.

For the next assay, the target named is T3, Her2 protein (human, UniProt P04626 part only).
T3 construct: Bought protein; also called human Her2 protein
B4: the OD450 amounted to 0.14.

B5 had an OD450 of 0.15.

As for B6, the OD450 was determined as 0.16.

B7 came in with an OD450 of 0.18.

B8 yielded an OD450 of 0.17.

The next assay addresses T4, human EGFR on cells (human, UniProt P00533).
Turning to B1, the EC50 turned out to be 151 nM and the “Max MFI” value came out at 15400.

For the molecule B2, the EC50 was found to be 3.61 nM and the “Max MFI” value was 28800.

With B3, it took 19.3 nM to reach a half-maximal effect (EC50) and the “Max MFI” value came to 14200.

A further assay deals with T1, human EGFR-His-tagged fusion protein. This is another data set of the same source.
In the case of B1, the OD450 was 2.82.

With B2, the OD450 worked out at 2.64.

As for B3, the OD450 turned out to be 2.75.

Another assay deals with T5, human EGFRvIII-His tag protein (human, UniProt P00533 part only).
T5 construct: Made in HEK293E, purified on nickel column; also called human EGFRvIII protein; not shown: His tag
Molecule B4 displayed a Kd of 50.5 nM, a koff of 0.00246 s⁻¹ and a kon of 48600 M⁻¹ s⁻¹.

B5 showed a Kd of 56.4 nM, a koff of 3.25 s⁻¹ and a kon of 5.76e+07 M⁻¹ s⁻¹.

B6 came in with a Kd of 23.4 nM, an off-rate (koff) of 6.66 s⁻¹ and a kon of 2.85e+08 M⁻¹ s⁻¹.

B7 displayed a Kd of 2.62 nM, a koff of 0.000165 s⁻¹ and a kon of 63100 M⁻¹ s⁻¹.

B8 had a Kd of 12.1 nM and a koff of 3.46 s⁻¹.

The target in the next assay is T3, Her2 protein. The source holds these as a separate data set.
Molecule B4 displayed an OD450 of 0.13.

With B5, the OD450 amounted to 0.11.

The molecule B6 returned an OD450 of 0.06.

Consider B7, for which the OD450 amounted to 0.11.

In turn, B8 displayed an OD450 of 0.09.

For a further assay, the target named is T1, human EGFR-His-tagged fusion protein. The source holds these as a separate data set.
In turn, B1 had an OD450 of 0.76.

For B2, the OD450 was 0.79.

For the molecule B3, the OD450 was 0.6.

The target in a further assay is T3, Her2 protein. The source holds these as a separate data set.
Take B4: the OD450 worked out at 0.15.

As to B5, the OD450 is 0.09.

Consider B6, for which the OD450 was 0.11.

With B7, the OD450 amounted to 0.08.

B8: the OD450 amounted to 0.08.

A further assay addresses T4, human EGFR on cells. The source holds these as a separate data set.
B1: the EC50 worked out at 30.3 nM and the “Max MFI” value turned out to be 15200.

As to B2, the midpoint of the response, the EC50, lay at 1.17 nM and the “Max MFI” value is 8370.

As for B3, the midpoint of the response, the EC50, lay at 4.33 nM and the “Max MFI” value was found to be 9110.

In a further assay the target is T1, human EGFR-His-tagged fusion protein. The source holds these as a separate data set.
As to B1, the OD450 is 2.61.

Consider B2, for which the OD450 came to 2.69.

The molecule B3 yielded an OD450 of 2.64.

In the next assay the target is T3, Her2 protein. The source holds these as a separate data set.
B4: the OD450 is 0.15.

Molecule B5 showed an OD450 of 0.12.

Molecule B6 yielded an OD450 of 0.11.

The molecule B7 showed an OD450 of 0.11.

In turn, B8 showed an OD450 of 0.1.

The target in a further assay is T3, Her2 protein. The source holds these as a separate data set.
In turn, B4 displayed an OD450 of 0.2.

B5 returned an OD450 of 0.12.

Molecule B6 returned an OD450 of 0.11.

B7: the OD450 worked out at 0.09.

For the molecule B8, the OD450 was 0.12.

The target in the next assay is T6, monkey EGFR protein (cynomolgus monkey, UniProt P55245 part only (rhesus entry)).
T6 construct: Bought protein (SB 90285-C08H); also called cynomolgus monkey EGFR
Turning to B4, binding was characterised by a dissociation constant (Kd) of 12.1 nM, the koff was 0.000616 s⁻¹ and the kon is 50900 M⁻¹ s⁻¹.

Turning to B5, the Kd is 7.54 nM, the koff stood at 0.000659 s⁻¹ and the kon came out at 87400 M⁻¹ s⁻¹.

In the case of B6, binding was put at a Kd of 1 nM and the kon is 95400 M⁻¹ s⁻¹.

B7: the Kd is 3.28 nM, the koff was determined as 0.000176 s⁻¹ and the kon is 53600 M⁻¹ s⁻¹.

B8 yielded a Kd of 2.58 nM, a koff of 0.000185 s⁻¹ and a kon of 71700 M⁻¹ s⁻¹.

In the next assay the target is T3, Her2 protein. This is another data set of the same source.
Molecule B4 showed an OD450 of 0.13.

B5 registered an OD450 of 0.1.

Molecule B6 registered an OD450 of 0.06.

For B7, the OD450 worked out at 0.11.

Molecule B8 showed an OD450 of 0.12.

The target of the next assay is T1, human EGFR-His-tagged fusion protein. The source holds these as a separate data set.
B1 displayed an OD450 of 0.06.

With B2, the OD450 came to 0.06.

For B3, the OD450 was 0.05.

For a further assay the target is unchanged. This is another data set of the same source.
In the case of B1, the OD450 was 2.94.

For B2, the OD450 came out at 2.96.

Take B3: the OD450 stood at 2.91.

The target of another assay is T3, Her2 protein. The source holds these as a separate data set.
Molecule B4 yielded an OD450 of 0.13.

For the molecule B5, the OD450 was found to be 0.08.

Molecule B6 registered an OD450 of 0.08.

For B7, the OD450 came to 0.12.

For B8, the OD450 came to 0.12.

A further assay concerns the target T3, Her2 protein. The source holds these as a separate data set.
Regarding B4, the OD450 worked out at 0.21.

B5 had an OD450 of 0.14.

B6 displayed an OD450 of 0.16.

Regarding B7, the OD450 is 0.14.

For B8, the OD450 was determined as 0.15.

A further assay deals with T1, human EGFR-His-tagged fusion protein. The source holds these as a separate data set.
Molecule B1 showed an OD450 of 2.13.

Regarding B2, the OD450 is 2.23.

Regarding B3, the OD450 was 1.99.

The target is the same in a further assay. The source holds these as a separate data set.
B1: the OD450 came out at 0.06.

On to B2, for which the OD450 is 0.09.

For B3, the OD450 was 0.12.

For another assay, the target named is T2, human EGFR protein. The source holds these as a separate data set.
Consider B4, for which the 80% effect level (EC80) was put at 1.1 µg/mL.

Regarding B5, the EC80 stood at 7.9 µg/mL.

The molecule B6 gave an EC80 of 64.2 µg/mL.

In turn, B7 showed a concentration for an effect of 80% (EC80) of 3.3 µg/mL.

For the molecule B8, the EC80 was 21.1 µg/mL.
